Reference: PubChem BioAssay AID1347434 (National Center for Advancing Translational Sciences (NCATS), 2020)
About 30 (2%) of roughly 1,200 compounds were called active. Another 23% or so got no clear call; they are omitted. The call rests on the fitted dose curve; in most records, active means well fitted inhibition curve with a large enough effect; inconclusive means small, poorly fitted or top-dose-only effect; inactive means flat fitted curve, though single readings scatter. The list shows a part of the results.

Each compound was assayed against Single-stranded DNA cytosine deaminase (Homo sapiens) (UniProt Q9GZX7) (assay: Confirmatory qHTS assay for inhibitors of Activation Induced Cytidine Deaminase (AID): AID signals). Conditions: recombinant AID, FRET deamination/UDG coupled fluorescence, 4 h; series mostly up to 115 µM; activity, negative = inhibition: at the top concentration.
Chain of UniProt Q9GZX7 (Q9GZX7 whole entry, looked up): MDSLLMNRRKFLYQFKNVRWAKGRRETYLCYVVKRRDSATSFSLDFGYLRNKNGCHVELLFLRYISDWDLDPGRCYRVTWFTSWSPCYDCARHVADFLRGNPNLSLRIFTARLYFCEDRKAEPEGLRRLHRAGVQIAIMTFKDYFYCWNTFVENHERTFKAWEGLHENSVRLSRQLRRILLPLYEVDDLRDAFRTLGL
Procedure, shortened: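 Read 1 (AID) was measured at 540 ex/590 em after a 30 min NaOH step. The reaction was AID (1 uM, 4/3x stock) with UDG, compound at final 7.32 nM - 114 uM for 10 min, then DJC20/DJC23 substrate for 4 hr at room temperature. A UDG read at 560/665 serves as counterscreen.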
On the % scale 0 is the no-effect control and ±100 the full control effect; potency means the concentration at half of the fitted maximal effect.

Row | SMILES | activity, negative = inhibition | Potency
1 | CC(C)(C)OC(=O)N1CCC(c2c(C(=O)NCCN3CCC(Cc4ccccc4)CC3)cnn2-c2ccccc2)CC1 | inactive: -19.5% | 
2 | COc1ccc(OCC(=O)NCC(c2ccc(Cl)cc2)N2CCCCC2)cc1 (centres undefined) | inactive: -11.1% | 
3 | CCCCOc1ccc(C(=O)N(Cc2ccc(C(C)C)cc2)C2CCS(=O)(=O)C2)cc1 (centres undefined) | inactive: -12.5% | 
4 | COc1ccc(-n2cc(-c3ccccc3)c3c(NC4CCCC4)ncnc32)cc1 | inactive: -13.8% | 
5 | Cc1ccc(S(=O)(=O)Nc2nc3n(n2)C(c2ccccc2Cl)C=C(c2ccccc2)N3)cc1 (centres undefined) | inactive: -17.4% | 
6 | O=C(CCCCCn1c(=O)[nH]c2ccccc2c1=O)NCc1ccc(Cl)cc1 | inactive: 9.51% | 
7 | COc1ccc(CCNC(=O)Cn2nc(C)c3c(C)n(-c4ccc(C)cc4)nc3c2=O)c(OC)c1 | inactive: -17.2% | 
8 | COc1cccc(CSc2nc(-c3ccccc3OC)nc3c2Cc2c(CO)cnc(C)c2O3)c1 | inactive: -23.5% | 
9 | CCn1cc2nc(SCc3cccc(F)c3)n(CCc3ccccc3)c(=O)c2n1 | inactive: -16.5% | 
10 | COc1ccccc1-c1nc2cc(NC(=O)c3ccccc3Cl)ccc2o1 | inactive: -16.3% | 
11 | Cc1nc(-c2ccc(F)cc2)sc1CCNC(=O)c1ccc(C(C)(C)C)cc1 | inactive: -13.9% | 
12 | COc1ccc(C(=O)Nc2nc3c(s2)Cc2cc(OC)ccc2-3)cc1 | inactive: -28.4% | 
13 | CCC1CN(C(=O)N2CCC(C(=O)N3CCN(c4cc(C)ccc4C)CC3)CC2)c2ccccc2O1 (centres undefined) | inactive: -27.1% | 
14 | CC1CCN(C(=O)C(C)Sc2nc(-c3ccccc3)cc(C(F)(F)F)n2)CC1 (centres undefined) | inactive: -10.3% | 
15 | O=C(CSc1nc2ccccc2nc1Cc1ccccc1)N1CCCCC1 | inactive: -24.9% | 
16 | Cn1nc(-c2ccccc2F)c2cc(C(=O)N3CCN(c4ccc(F)cc4)CC3)sc21 | inactive: -16% | 
17 | Cc1ccc(C)c(N2CCN(CCCNC(=O)c3ccc4nc(N5CCCCC5)sc4c3)CC2)c1 | inactive: -11% | 
18 | CCCOc1c(Cl)cc(C(=O)N(Cc2cccc(OC)c2)C2CCS(=O)(=O)C2)cc1Cl (centres undefined) | inactive: -14.3% | 
19 | O=C(NCc1ccccc1Cl)c1ccc2c(O)c(S(=O)(=O)c3ccccc3)c(=O)[nH]c2c1 | inactive: -12.7% | 
20 | CCOc1ccc(-n2c(CCC(=O)O)ccc2-c2ccc(Br)cc2)cc1 | inactive: -24.3% | 

Row | SMILES | activity, negative = inhibition | Potency
21 | CCC(C(=O)N1CCN(c2ccccc2)CC1)n1nc(C)n2c(cc3sccc32)c1=O (centres undefined) | inactive: -13.4% | 
22 | CCCOc1ccc(-c2nn(-c3ccccc3)cc2C2NC(=O)NC(C)=C2C(=O)OC(C)C)cc1 (centres undefined) | inactive: -11.1% | 
23 | C=Cc1ccc(Cn2nc(-c3ccc(C)c(S(=O)(=O)N(CC)CC)c3)ccc2=O)cc1 | inactive: -25.5% | 
24 | Cn1nc(-c2ccc(C(=O)Nc3ccc(F)cc3)cc2)c2ccccc2c1=O | inactive: -28.5% | 
25 | O=C(O)CSc1c2c(nc3cc(C(=O)Nc4ccc(F)c(Cl)c4)ccc13)CCC2 | inactive: -9.98% | 
26 | CCCN1CCN(CCCNC(=O)c2ccc3c(c2)sc2nc(-c4ccc(OCC)cc4)cn23)CC1 | inactive: -14.1% | 
27 | COc1ccc(OC)c(NC(=O)N2CC(C)Oc3ccc(C)cc32)c1 (centres undefined) | inactive: -7.39% | 
28 | Cc1ccc(OCC(=O)N(Cc2ccc(Cl)cc2)CC2CCCO2)cc1C (centres undefined) | inactive: -15.7% | 
29 | Cc1ccccc1Cn1c(CN2CCN(c3cc(Cl)ccc3C)CC2)nc2c1c(=O)[nH]c(=O)n2C | inactive: -3.76% | 
30 | CCOc1ccccc1NC(=O)CSC1=Nc2ccccc2C2=NC(CC(=O)NC3CCCCC3)C(=O)N12 (centres undefined) | inactive: -4.92% | 
31 | CCOc1ccc(NC(=O)CN(C)S(=O)(=O)c2ccc3c(c2)c(=O)n(C)c(=O)n3C)cc1 | inactive: 8.36% | 
32 | Cc1ccc(C)c(CNC(=O)c2cnc3sc(N4CCCC4)nn3c2=O)c1 | inactive: 3.74% | 
33 | CCOC(=O)C1=C(CN(CC)Cc2ccccc2)NC(=O)NC1c1ccc(OC(C)C)cc1 (centres undefined) | inactive: -13.7% | 
34 | COc1ccc(CCN2CCC(CNC(=O)c3cnn(-c4ccccc4)c3C3CCN(C(=O)OC(C)(C)C)CC3)CC2)cc1 | inactive: -15% | 
35 | Cc1ccc(Cc2nc3ccccc3nc2SCC(=O)N2CCCCC2C)cc1 (centres undefined) | inactive: -16.1% | 
36 | Cc1cccn2c(=O)c3cc(C(=O)N(Cc4ccccc4)C(C)C)sc3nc12 | inactive: -25.5% | 
37 | CCN(CC)C(=O)C1CCCN(c2ncnc3c2c(-c2ccccc2)cn3-c2cccc(C)c2)C1 (centres undefined) | inactive: -15% | 
38 | CCC(C)NC(=O)c1cn(CC)c2ccc(S(=O)(=O)N3CCc4ccccc4C3)cc2c1=O (centres undefined) | inactive: -23.3% | 
39 | Cc1cccc(NC(=O)COc2ccc3oc4c(c3c2)CCCC4)c1 | inactive: -2.46% | 
40 | Cc1ccc(CNC(=O)CSCc2nc(-c3cccc(C)c3)oc2C)cc1 | inactive: -11.1% | 

Row | SMILES | activity, negative = inhibition | Potency
41 | COc1ccccc1N1CCN(C(=O)c2cc3c(-c4ccccc4F)nn(C)c3s2)CC1 | inactive: -21.4% | 
42 | CCOc1cccc(C(=O)N(Cc2ccc(F)cc2)Cc2ccco2)c1 | inactive: -12.4% | 
43 | CCC(=O)N1CCc2cc(Br)cc(S(=O)(=O)CCC(=O)N(C)c3cccc(C)c3)c21 | inactive: -4.64% | 
44 | O=C1CC(c2nc3ccccc3n2CCC2CCCCC2)CN1c1ccccc1Cl (centres undefined) | inactive: -8.71% | 
45 | CC(=O)O[C@H]1C[C@@H]2CC[C@@H]3[C@H](CC[C@@]4(C)[C@H]3C[C@H]([N+]3(C)CCCCC3)[C@@H]4OC(C)=O)[C@@]2(C)C[C@@H]1[N+]1(C)CCCCC1 |  | active: 17.8 µM
46 | CCc1ccc(CNC(=O)CSCc2cnn(-c3ccccc3)c2-n2cccc2)cc1 | inactive: -4.5% | 
47 | COc1cccc(-c2nc(CS(=O)CC(=O)N3CCN(c4cccc(C(F)(F)F)c4)CC3)c(C)o2)c1 (centres undefined) | inactive: -23.9% | 
48 | Cc1ccccc1Cc1c(C)nc2nc(SCC(=O)NC(C)c3ccccc3)nn2c1C (centres undefined) | inactive: -11.1% | 
49 | Cc1ccccc1-c1noc(CSc2nnc(Cc3ccccc3)n2-c2ccc(F)cc2)n1 | inactive: -16.2% | 
50 | COc1ccc(C(=O)c2cn(Cc3ccccc3F)c3ccc(F)cc3c2=O)cc1 | inactive: -13.1% | 
51 | CCCCOc1ccc(Cn2c(=O)sc3ccccc32)cc1 | inactive: -2.57% | 
52 | CCCCCn1c(=N)n(CC(O)COc2cccc(C)c2)c2ccccc21 (centres undefined) | inactive: -25.8% | 
53 | CCCN(CCC)CC(O)Cn1cc(/C=C/C(=O)c2ccc(OCC)cc2)c2ccccc21 (centres undefined) | inactive: -22.5% | 
54 | CCN(CC)CCOC(=O)c1ccc(NC(=O)CSc2cc(=O)n(CC)c3ccccc23)cc1 | inactive: -2.43% | 
55 | Cc1ccccc1Cn1c(SCc2ccc(C(=O)NC3CCCC3)cc2)nc2ccncc21 | inactive: 2.54% | 
56 | Cc1ccc(-n2cnc3cc(C(=O)NCc4ccccc4Cl)ccc32)c(C)c1 | inactive: -15.4% | 
57 | CCOC(=O)C1CCCN(C(=O)c2cc3c(Cl)nc4ccccc4c3s2)C1 (centres undefined) | inactive: -0.274% | 
58 | Fc1ccc(F)c(Nc2c3c(nc4ccc(Cl)cc24)CCC3)c1 | inactive: -6.59% | 
59 | O=C(c1ccccc1Cl)N1CCCC(c2nc3c(nnn3Cc3ccc(F)cc3F)c(=O)[nH]2)C1 (centres undefined) | inactive: -4.39% | 
